Results reported in the supplement of paper PMC3334620.
The full ranking holds about 33,000 sequences; the median of “E-score (-0.5 to 0.5)” is about -0.012, and the highest 2% start at about 0.27. This is one part of the list.

Biological target: T1, Vhr1 (UniProt P40522)
T1 sequence: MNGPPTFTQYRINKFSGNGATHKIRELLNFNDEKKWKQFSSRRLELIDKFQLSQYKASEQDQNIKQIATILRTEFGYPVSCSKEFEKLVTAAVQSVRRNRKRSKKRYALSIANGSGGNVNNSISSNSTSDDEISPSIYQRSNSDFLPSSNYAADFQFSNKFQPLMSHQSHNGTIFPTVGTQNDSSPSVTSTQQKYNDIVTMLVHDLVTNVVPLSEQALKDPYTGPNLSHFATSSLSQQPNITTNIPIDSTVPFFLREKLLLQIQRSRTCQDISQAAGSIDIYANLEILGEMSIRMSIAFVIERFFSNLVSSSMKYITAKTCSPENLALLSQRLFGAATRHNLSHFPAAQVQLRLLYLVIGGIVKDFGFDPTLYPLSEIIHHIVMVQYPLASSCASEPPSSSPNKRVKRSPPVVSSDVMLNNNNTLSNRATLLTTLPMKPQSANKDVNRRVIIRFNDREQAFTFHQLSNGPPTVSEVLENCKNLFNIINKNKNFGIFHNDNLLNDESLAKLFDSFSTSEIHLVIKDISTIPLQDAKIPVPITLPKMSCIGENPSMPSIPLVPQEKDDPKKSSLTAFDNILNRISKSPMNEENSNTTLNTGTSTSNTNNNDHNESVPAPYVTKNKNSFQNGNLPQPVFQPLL
Test: PBM E-score (8-mer binding enrichment) (E-score (-0.5 to 0.5)); higher = stronger / more preferred TF binding; most listed sequences are background and not binding sites
Conditions: protein concentration: 200 nM; construct: GST-full length
In short: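 E-scores (a modified Wilcoxon-Mann-Whitney statistic) were assigned by the Universal PBM Analysis Suite to every ungapped eight-base word pooled with its reverse complement. The input came from universal all-10-mer Agilent arrays made double-stranded by primer extension and probed with GST-tagged yeast transcription factors at about 100-200 nM. Fluorescent anti-GST detected bound protein, and masliner normalised the scans.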

Point of comparison: AACTTAGC, “PBM E-score” value -0.266. Against it:
- ACTCTGTG — higher, 0.0323
- CCACATCA — higher, 0.157
- AACCCCGG — higher, -0.0703
- ATGGATTC — higher, 0.112
- ACCCCTGA — higher, 0.143
- AAGGTCAT — higher, -0.0525
- CGGTGCCC — higher, 0.0865
- AATTGAGT — higher, 0.272
- CTGTAACA — higher, 0.024
- AAAAAAGT — higher, -0.00293
- ACTATCGG — higher, 0.0675
- CAATGTCA — higher, 0.0787
- CTTCCGTA — higher, -0.0944
- ACGTAATC — higher, 0.203
- TCACGGCA — higher, -0.0393
- CCGAGGCG — higher, 0.0619
- GCGGAAGC — higher, -0.177
- AGTTGGCA — higher, 0.0337
- ACTTCACT — higher, -0.204
- ATTTAAAG — higher, -0.0479
- AATAAGGA — higher, -0.159
- GCAATGAA — higher, 0.0166
- GTGATAGA — higher, -0.0432
- CATTCCAC — higher, 0.0312
- CTGCTCAA — higher, -0.161
- AACCATAG — higher, -0.00721
- ACTGTGAC — higher, 0.26
- GGCAAGCA — higher, -0.224
- GGCTTAGA — lower, -0.384
- AACTCCAG — higher, -0.144
- CTGGGACC — higher, -0.128
- CCGCGATC — higher, 0.135
- ATTTAAAT — higher, -0.00436
- GGATTGCC — higher, -0.157
- ATGACTCG — higher, 0.457
- ACACGAGC — higher, 0.0373
- ACAATCCA — higher, 0.123
- AGATAAAG — higher, -0.122
- CATTCGCG — higher, 0.279
- CGACGGGC — higher, 0.133
- CTAACGGC — higher, -0.0696
- CAAGCATG — higher, 0.0615
- CAATTCAA — higher, -0.0723
- ACCTTAAT — higher, -0.0922
- AATCGGGC — higher, -0.0767
- AGTGACGG — higher, 0.00494
- ACTTTGCC — higher, -0.0785
- AGAGAAAA — higher, -0.184
- ATTGGACG — lower, -0.3
- GTATATAA — higher, 0.173
- GTCAGTGA — higher, 0.231
- TCCGATCA — higher, 0.0717
- ACATATAT — higher, 0.185
- ACGACGGC — higher, -0.0346
- CACTACGG — higher, 0.0045
- AGTGTTTA — higher, 0.0268
- CAGCTGCC — higher, -0.16
- AGCCAAGA — higher, -0.0975
- CCCTTTGC — higher, 0.0471
- ATTTCGGC — higher, 0.0568
- AGCGGACA — higher, -0.0639
- ACATAAAC — higher, 0.0679
- AATAAACC — higher, 0.119
- ATTAACGC — higher, -0.0525
- TCGCCAGA — higher, 0.0899
- AGACAGCA — higher, -0.0562
- CATACTCG — higher, 0.18
- ACCGAAAG — higher, -0.215
- AAGTGTTA — higher, -0.166
- TACTACAA — higher, 0.132
- ACGTGATA — higher, -0.2
- AAAAAAGA — higher, -0.112
- CTACTCGA — higher, 0.0342
- TCACCGAA — higher, 0.155
- AATTAGCA — higher, -0.0883
- CTAGTACC — higher, -0.0145
- GTAGGATA — higher, -0.0158
- ACGAGAAG — higher, -0.192
- AATCCACG — higher, -0.16
- ATGAAGTC — higher, -0.042
- TAAGCATA — higher, 0.00077
- CAGTCCAA — higher, 0.0262
- ACACGAGA — higher, 0.138
- ATGGGCCA — higher, -0.126
- AATATAAC — higher, 0.0204
- AAATGGTT — higher, 0.0383
- CGCCCGAC — higher, 0.342
- ATAAGCAG — higher, -0.0155
- ACCCGGGC — higher, 0.126
- CGTACGGA — higher, 0.0927
- ACTATACC — higher, 0.209
- CCTAGAGG — higher, -0.177
- GTTGACCA — higher, -0.0493
- AAGTTACT — higher, 0.121
- TGTTCTAA — higher, -0.0387
- AACGGGAC — higher, -0.178
- CACCCCGA — higher, 0.236
- GCACGTCC — higher, -0.0222
- ATCCTCGC — higher, 0.0808
- CGCGCGCA — higher, 0.259
- GGTGTCTA — higher, 0.166
- AGGGTAGC — higher, -0.121
- GGGTGAAA — higher, -0.0775
- AGATTAAG — higher, -0.0357
- AGTCGACG — higher, 0.278
- ATTAACTC — higher, 0.139
- GCCGTGAA — higher, 0.0374
- TGGCGCAA — higher, -0.119
- AGAGCACC — higher, -0.149
- TCAATACA — higher, 0.147
- AATGAAAG — higher, -0.125
- AAGAGTCA — higher, 0.422
- AGCGAGTG — higher, 0.192
- GTGTGCTA — higher, 0.165
- ATAACACC — higher, 0.21
- CATGCGTC — higher, 0.148
- ATATCTCG — higher, -0.224
- AGCCGAGC — higher, -0.0786
- GAGCGAAC — higher, -0.0181
- CGGTATGA — higher, 0.174
- GAGCGTCA — higher, -0.155
- CAAAAAAA — higher, -0.0604
- CATCAGCG — higher, 0.0603
- TATATGGA — higher, 0.175
- ACGTGTTC — higher, -0.219
- TACGCTAA — higher, -0.011
- AGTTCCAC — higher, -0.0718
- ATCCAAAC — higher, 0.132
- CGGCGCGC — higher, 0.223
- AACCAGCC — higher, 0.0858
- AGATTCAC — higher, 0.097
- CCAAGTGG — higher, -0.0343
- GTATTGCA — higher, -0.136
- TATATTCA — higher, 0.0779
- TCTGTGAA — higher, -0.077
- CCCGATAA — higher, 0.00419
- CAGTTATA — higher, 0.113
- TAGTACCA — higher, 0.0581
- CGCTCGGA — higher, 0.00307
- AACCCCTC — higher, -0.0573
- CCGTAGAC — higher, -0.157
- ACCTTCCT — higher, -0.183
- CAATAACG — higher, -0.137
- CCCTCTAA — higher, -0.231
- CAACTCGC — higher, 0.163
- ATAGCGAA — higher, -0.0348
- GTCACAGA — higher, 0.157
- CACGTACG — higher, -0.124
- TGAGAGAA — higher, -0.119
- AGACGGTC — higher, -0.166
- CTTATTTA — higher, -0.201
- TAGGCCGA — higher, -0.262
- CTGTTTTA — higher, -0.137
- CAACATGC — higher, 0.15
- CGAGTGGA — higher, -0.0131
- AAAAGGTC — higher, -0.25
- GCACCGGA — higher, -0.0806
- CCAATACC — higher, -0.00651
- CGTCCGTA — higher, -0.0033
- ACCTAGAT — higher, 0.0853
- CTTGTCCA — higher, -0.231
- CAACAATC — higher, 0.273
- GGTCCGAA — higher, 0.0081
- ACACCAAC — higher, 0.177
- GCGGAACC — higher, 0.107
- ACGCTACA — higher, 0.0548
- TCACAGGA — higher, 0.103
- CCATCTTC — higher, 0.0786
- TACATATA — higher, 0.264
- AGACTAGA — higher, -0.19
- TGTTGTAA — higher, 0.0861
